Data published in PubChem BioAssay AID686971 (National Center for Advancing Translational Sciences (NCATS), 2013).
Out of some 360,000 compounds screened, about 7,500 (2.1%) were called active. Inconclusive results, whose numbers are uncertain, are shown with a selection of clear calls. Calls follow the shape of the dose curve; as a rule, active = well fitted cell-killing curve with a large enough effect; inconclusive = small, poorly fitted or top-dose-only effect, or effect the other way, or another doubt; inactive = no such curve, though single readings can be large or run the other way. No potency is given beside an inconclusive call; the fits are too rough.

assay: qHTS for induction of synthetic lethality in tumor cells producing 2HG: qHTS for the HT-1080-IDH1KD cell line; settings: HT-1080 IDH1 knockdown viability, ATP luminescence, 48 h; series mostly up to 46.1 µM
Outline: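 After a 2 h attachment period, IDH1KD HT-1080 cells took pin-transferred compound for 48 h at 37 °C; ATP-based luminescence after 10 min room-temperature reagent incubation reported viability.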
Potency is read from the fitted curve at half-maximal effect; tags tell the direction and shape of the fitted curve.

Compound	Potency
Cc1nn(-c2cccc(C(F)(F)F)c2)c(Cl)c1/C=N/Nc1cccc(C(=O)O)c1	inactive
COCCn1c(C)cc(C(=O)COC(=O)c2ccc3ncsc3c2)c1C	inactive
COc1ccc(/C=N/N(Cc2ccccc2)c2ccccc2)cc1O	active: 23.1 µM
O=C(NC1CCN(C(=O)NC2CCCCC2)CC1)c1cccc(F)c1	inconclusive [rising, single point]
CCN(CC)C(=O)CSc1nnc(-c2ccc(S(=O)(=O)N3CCCC3)cc2)o1	inactive
Cc1ccc(CN2C(=O)CCC2C(=O)NCCc2ccccc2)cc1 (stereo not given)	inactive
N#CC1=C(SCC(=O)Nc2ccc(C(=O)O)cc2)NC(=O)CC1c1ccco1 (stereo not given)	inactive
O=C(NN=C1CCCC1)c1n[nH]c2c1CCC2	active: 3.66 µM
CCOC(=O)N1CCC(c2cc(=O)n3[nH]c(C)c(-c4ccc(F)cc4)c3n2)CC1	inconclusive [cytotoxic, partial curve]
Cc1cc(C)cc(C(=O)NN2CCOCC2)c1	inactive
CCOC(=O)Nc1ccc2nc(Sc3ccc(Cl)cc3)sc2c1	inconclusive [cytotoxic, single point]
Cc1ccc(C(NC(=O)N2CCOCC2)=C(Cl)Cl)cc1F	active: 14.1 µM
COC(=O)c1cn(C(=O)c2ccc3c(c2)OCO3)c2ccccc12	inactive
O=C(c1ccc2ncsc2c1)N1CCN(c2cccc(C(F)(F)F)c2)CC1	active: 8.2 µM
COc1ccccc1N1CCN(C(=O)c2cc(=O)c3cc(C)ccc3o2)CC1	inconclusive [cytotoxic, single point]
CCN1/C(=C/C=C/c2oc3ccc4ccccc4c3[n+]2CC)Oc2ccc3ccccc3c21	inconclusive [cytotoxic, partial curve, poor fit]
CC1(CC(=O)N/N=C/c2cc3c(cc2Br)OCO3)OCCO1	inactive
CCOC(=O)c1[nH]c(C)c(/C(O)=C2\C(=O)C(=O)N(CCN3CCOCC3)C2c2cccs2)c1C (stereo not given)	inconclusive [cytotoxic, single point]
COc1ccc(CNC(=O)C2(C)Cc3c(-c4cccc(NC(C)=O)c4)ccnc3O2)cc1OC (stereo not given)	inconclusive [cytotoxic, single point]
COc1cc(/C=N\NC(=O)c2cccc(Cl)c2)ccc1Oc1ccc([N+](=O)[O-])cn1	inconclusive [cytotoxic, single point]
Cc1ccc(NC(=O)CN(C)C(=O)Cn2ncc(Cl)c(Cl)c2=O)cc1	active: 20.6 µM
O=C(NNC(=O)C1CCN(S(=O)(=O)c2ccccc2)CC1)c1ccccc1O	inconclusive [cytotoxic, partial curve]
CNC(=O)c1ccc(CN(C)C(=O)/C=C/c2ccc(S(=O)(=O)N3CCCCCC3)cc2)cc1	inactive
CS(=O)(=O)N(Cc1ccc(Cl)cc1)c1ccc(C(=O)N2CCN(c3ccccc3)CC2)cc1	inactive
CCOC(=O)c1ccc(NC(C)=O)c([N+](=O)[O-])c1	inactive

Compound	Potency
CCOC(=O)c1ccc(N=c2sc(C(=O)OC)cc(=O)n2-c2ccc(C(=O)OCC)cc2)cc1	inconclusive [cytotoxic, single point]
Cc1ccc(/C=N/NC(=O)c2cc(C)oc2C)cc1	active: 20.6 µM
COc1cc(C(=O)OCC(=O)NCc2ccc(F)cc2)cc(NC(=O)c2cccs2)c1OC	inactive
CN(C)CCCNc1cc(C(C)(C)C)nc2c(-c3ccccc3)cnn12	inconclusive [cytotoxic, single point]
O=C(NCc1ccccc1)C(c1ccc(-c2ccccc2)cc1)N1CCN(C(=O)C2CCCO2)CC1 (stereo not given)	inconclusive [cytotoxic, single point]
COc1ccc(-c2csc(C(O)c3ccc(F)cc3)n2)cc1 (stereo not given)	inconclusive [cytotoxic, single point]
COc1ccc(NS(=O)(=O)c2ccc3c(c2)NC(=O)CC(=O)N3)cc1OC	inactive
COc1ccc2o/c(=N\O)c(C(=O)Nc3ccccc3OC)cc2c1	inactive
CN1CCN(c2ccc(C(CC(N)=O)NC(=O)c3ccccc3)cc2[N+](=O)[O-])CC1 (stereo not given)	inactive
COc1ccc(C(=O)/C=C/c2cn(CC(O)CN3CCOCC3)c3ccccc23)cc1 (stereo not given)	inconclusive [cytotoxic, single point]
CSc1ccccc1NC(=O)CN(C)CC(=O)Nc1ccccc1C(F)(F)F	inactive
CC(C)(C)c1ccc(C(=O)NCc2nnc(SCC(=O)NC3CCCCC3)o2)cc1	inactive
CCCN(CCC)S(=O)(=O)c1ccc(C(=O)Nc2nnc(CSC)o2)cc1	inconclusive [cytotoxic, partial curve]
O=S(=O)(NCCCc1ccccc1)c1ccccc1	inactive
COc1cccc(/C=N/NC(=O)CN(C2=NS(=O)(=O)c3ccccc32)c2ccccc2)c1	inconclusive [cytotoxic, single point]
CCOc1ccc(OCCC(=O)OCC(=O)Nc2cc(S(=O)(=O)N3CCOCC3)ccc2C)cc1	inactive
O=C(CCN1N=C(c2ccccc2)CCC1=O)NC1CCCCC1	inactive
Oc1ccc(NCc2ccc(OCc3ccccc3)cc2)cc1	inconclusive [cytotoxic, single point]
COc1ccc(C(=O)NCCCNC(=O)c2cccnc2)cc1Br	active: 10.3 µM
Cc1ccc(C(=O)NC2c3ccccc3-c3ccccc32)cc1	active: 2.59 µM
O=C(Cn1nnc(-c2ccc(CN3CCOCC3)cc2)n1)Nc1nc(-c2ccccc2)cs1	inactive
Fc1ccc(OCCCCCN2CCCC2)cc1	inactive
CCOc1ccccc1C1N=C(c2ccc(OC)cc2)CC(c2ccccc2O)N1 (stereo not given)	inconclusive [cytotoxic, single point]
Fc1ccc2nc(Nc3nc4cc5c(cc4s3)OCCO5)sc2c1	inconclusive [cytotoxic, single point]
N#Cc1cc(NC(=O)c2ccc(Cl)cc2)ccc1Sc1ccccc1	active: 20.6 µM
